Structures are written as SMILES. Counter-ions that a name gives are not always drawn. Some of the results follow. Repeats are few or missing, and single values can be far off.
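Also: monoclonal Beas-2B line stably carrying CMV promoter-driven AQP5-HiBiT, 5,000 cells per well in 384-well plates, lytic HiBiT plus LgBiT NanoLuc luminescence, FDA-approved drug library screen.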

The experiment concerns Beas-2B AQP5-HiBiT reporter cells. The experiment is described as follows: AQP5-HiBiT luminescence relative to vehicle (ratio to vehicle); higher = higher AQP5-HiBiT protein abundance. Particulars: 10 µM; 18 h. A general note: With HiBiT, luminescence reflects the tagged protein that the partner subunit can reach.
Take `O=c1[nH]c2ccccc2n1C1CCN(CCCC(c2ccc(F)cc2)c2ccc(F)cc2)CC1` [Pimozide]: the AQP5-HiBiT luminescence is 1.32.
For `COc1ccc(OC)c(C(O)C(C)N)c1` (configuration not stated) [Methoxamine hydrochloride] the value was 1.08; for `C[C@@H]1[C@H](O)[C@@H](C)/C=C/C=C/CC/C=C/C=C/C=C/C=C/[C@H](O[C@H]2O[C@@H](C)[C@H](O)[C@@H](N)[C@H]2O)C[C@@H]2O[C@](O)(C[C@@H](O)[C@H](O)CC[C@@H](O)C[C@@H](O)C[C@@H](O)CC(=O)O[C@H]1C)C[C@H](O)[C@H]2C(=O)O` [Nystatin (Fungicidin)], 0.845; for `COc1cc2c(c(OC)c1OC)-c1ccc(OC)c(=O)cc1[C@@H](NC(C)=O)CC2` [Colchicine], 2.65.
Consider `C=C1C[C@@H]2[C@H](CC[C@]3(C)C(=O)CC[C@@H]23)[C@@]2(C)C=CC(=O)C=C12` [Exemestane], for which the AQP5-HiBiT luminescence came out at 1.15.
For `CCCCCCCCCC(=O)O[C@H]1CC[C@H]2[C@@H]3CCC4=CC(=O)CC[C@@H]4[C@H]3CC[C@]12C` [Nandrolone decanoate] the value was 1.04; for `Oc1cc(Cl)ccc1Oc1ccc(Cl)cc1Cl` [Triclosan], 0.599.
For `CCOC(=O)c1cncn1[C@H](C)c1ccccc1` [Etomidate] the value was 1.03; for `CC(NC(C)(C)C)C(=O)c1cccc(Cl)c1` (configuration not stated) [Bupropion hydrochloride], 1.2.
For `CN1CCN(C(=O)OC2c3nccnc3C(=O)N2c2ccc(Cl)cn2)CC1` (configuration not stated) [Zopiclone] the value was 0.908; for `CC[C@@H](c1cccc(O)c1)[C@@H](C)CN(C)C` [Tapentadol hydrochloride], 0.825; for `N[C@@H]1C[C@H]1c1ccccc1` [Tranylcypromine (2-PCPA) hydrochloride], 0.872.
As for `NCCCNCCSP(=O)(O)O` [Amifostine], the AQP5-HiBiT luminescence was 1.09.
For `O=[N+]([O-])O[C@H]1CO[C@H]2[C@@H]1OC[C@H]2O[N+](=O)[O-]` [Isosorbide dinitrate] the value was 1.55.
For `CN1C(=O)CCS(=O)(=O)C1c1ccc(Cl)cc1` (configuration not stated) [Chlormezanone] the value was 1; for `CC(C)c1cccc(C(C)C)c1O` [Propofol], 1.18.
The result for `COc1ccc2c(c1)[C@]13CCCC[C@@H]1[C@H](C2)N(C)CC3` [Dextromethorphan HBr monohydrate] reads 0.89; that for `CC[C@@H](C(N)=O)N1CCCC1=O` [Levetiracetam], 0.95.
For `CC(C)OC(=O)[C@H](C)N[P@](=O)(CO[C@H](C)Cn1cnc2c(N)ncnc21)Oc1ccccc1` [GS-7340 Tenofovir alafenamide], the AQP5-HiBiT luminescence was 1.07.
For `CCCCCCC(=O)O[C@H]1CC[C@H]2[C@@H]3CCC4=CC(=O)CC[C@]4(C)[C@H]3CC[C@]12C` [Testosterone Enanthate] the value was 0.693; for `C[C@]12CC[C@H]3[C@@H](CCC4=CC(=O)CC[C@@H]43)[C@@H]1CC[C@@H]2O` [Nandrolone], 0.849; for `CN1C[C@H](C(=O)N[C@]2(C)O[C@@]3(O)[C@@H]4CCCN4C(=O)[C@H](Cc4ccccc4)N3C2=O)C=C2c3cccc4[nH]cc(c34)C[C@H]21` [Ergotamine bitartrate], 0.85.
For `Cl[C@H]1[C@H](Cl)[C@@H](Cl)[C@@H](Cl)[C@H](Cl)[C@H]1Cl` [Lindane] the value was 1.11; for `O=P1(N(CCCl)CCCl)NCCCO1` (configuration not stated) [Cyclophosphamide monohydrate], 0.653.
The result for `Nc1ccncc1` [4-Aminopyridine] reads 0.949; that for `C[N+]1(C)[C@@H]2C[C@@H](OC(=O)[C@H](CO)c3ccccc3)C[C@H]1[C@@H]1O[C@@H]12` [Methscopolamine], 0.658.
Consider `C=CCN1CC[C@]23c4c5ccc(O)c4O[C@H]2C(=O)CC[C@@]3(O)[C@H]1C5` [Naloxone hydrochloride], for which the AQP5-HiBiT luminescence came to 1.01.
The result for `NCC1(CC(=O)O)CCCCC1` [Gabapentin] reads 1.06; that for `Cn1c(CCCC(=O)O)nc2cc(N(CCCl)CCCl)ccc21` [Bendamustine hydrochloride], 1.02; that for `O=C(O[C@H]1C[N+]2(CCCOc3ccccc3)CCC1CC2)C(O)(c1cccs1)c1cccs1` [Aclidinium bromide], 1.38.
The result for `C[C@H]1CNCCc2ccc(Cl)cc21` [Lorcaserin] reads 0.944.
Consider `COc1cc2c(cc1OC)C1CC(=O)C(CC(C)C)CN1CC2` (configuration not stated) [Tetrabenazine], for which the AQP5-HiBiT luminescence was determined as 0.652.
For `O=P1(NCCCl)OCCCN1CCCl` (configuration not stated) [Ifosfamide] the value was 1.53.
For `N[C@@H](Cc1ccc(N(CCCl)CCCl)cc1)C(=O)O` [Melphalan] the value was 0.651; for `C[C@]1(O)CC[C@H]2[C@@H]3CCC4=CC(=O)CC[C@]4(C)[C@@]3(F)[C@@H](O)C[C@@]21C` [Fluoxymesterone], 0.68.
As to `O=C(O)CCCc1ccc(N(CCCl)CCCl)cc1` [Chloroambucil], the AQP5-HiBiT luminescence is 0.832.
In the case of `CC1(C)C(C=C(Cl)Cl)C1C(=O)OCc1cccc(Oc2ccccc2)c1` (configuration not stated) [Permethrin], the AQP5-HiBiT luminescence is 1.01.

(Values after the supplement of paper PMC8821664.)
